From publication PMC4939424
Results are given in words; binding and its absence hold for the method and conditions named. Binding seen in cells or lysates may run through a third protein. Some results given as binding are weak or reduced against the parent protein; the word gives no strength. Tags and fused reporters may be left off the sequences shown.

How the values were obtained:
Test in all cases: co-IP; GFP-PI3KAP/XB130 co-transfected with full-length or deletion mutants of FLAG-tagged PI3KAP/XB130 into HEK293T cells; lysates immunoprecipitated with anti-FLAG M2 agarose, immunoblotting
[1] = molecular target: T1, FLAG-tagged PI3KAP/XB130 deletion mutant, amino acid residues 1-510 (mouse) (UniProt Q5DTU0)
T1 sequence: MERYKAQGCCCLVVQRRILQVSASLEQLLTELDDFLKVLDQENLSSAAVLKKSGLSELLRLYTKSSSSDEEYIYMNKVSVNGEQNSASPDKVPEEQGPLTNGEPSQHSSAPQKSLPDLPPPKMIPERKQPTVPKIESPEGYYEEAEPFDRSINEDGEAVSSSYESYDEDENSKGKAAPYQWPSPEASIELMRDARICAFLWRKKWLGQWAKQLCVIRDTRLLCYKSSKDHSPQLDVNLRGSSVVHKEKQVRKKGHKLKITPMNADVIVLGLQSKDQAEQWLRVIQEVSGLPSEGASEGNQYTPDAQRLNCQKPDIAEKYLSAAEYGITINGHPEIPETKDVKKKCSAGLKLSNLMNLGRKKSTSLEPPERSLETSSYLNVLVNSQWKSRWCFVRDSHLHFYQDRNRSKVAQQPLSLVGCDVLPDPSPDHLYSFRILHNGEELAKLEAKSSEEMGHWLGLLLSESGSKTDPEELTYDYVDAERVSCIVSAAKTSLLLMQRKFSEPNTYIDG

[2] = molecular target: T2, FLAG-tagged PI3KAP/XB130 deletion mutant, amino acid residues 122-843 (mouse) (UniProt Q5DTU0)
T2 sequence: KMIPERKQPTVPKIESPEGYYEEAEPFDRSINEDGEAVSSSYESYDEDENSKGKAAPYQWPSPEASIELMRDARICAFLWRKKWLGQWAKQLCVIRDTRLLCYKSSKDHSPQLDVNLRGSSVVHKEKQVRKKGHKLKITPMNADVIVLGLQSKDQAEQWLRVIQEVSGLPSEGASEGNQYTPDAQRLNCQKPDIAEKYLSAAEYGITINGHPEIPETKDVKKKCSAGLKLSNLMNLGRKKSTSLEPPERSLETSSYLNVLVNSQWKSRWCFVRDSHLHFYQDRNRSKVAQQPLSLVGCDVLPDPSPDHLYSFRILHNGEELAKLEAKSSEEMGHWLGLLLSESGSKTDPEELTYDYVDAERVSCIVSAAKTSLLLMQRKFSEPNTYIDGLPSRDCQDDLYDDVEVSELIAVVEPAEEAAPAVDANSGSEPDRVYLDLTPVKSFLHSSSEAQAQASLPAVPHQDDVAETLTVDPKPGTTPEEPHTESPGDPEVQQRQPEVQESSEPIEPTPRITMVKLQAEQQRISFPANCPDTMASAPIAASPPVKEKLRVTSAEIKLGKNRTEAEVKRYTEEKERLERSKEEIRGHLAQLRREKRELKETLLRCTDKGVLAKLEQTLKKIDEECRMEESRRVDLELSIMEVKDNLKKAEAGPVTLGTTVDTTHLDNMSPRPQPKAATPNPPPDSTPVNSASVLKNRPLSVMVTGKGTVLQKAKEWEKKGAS

[3] = molecular target: T3, FLAG-tagged PI3KAP/XB130 deletion mutant, amino acid residues 41-843 (mouse) (UniProt Q5DTU0)
T3 sequence: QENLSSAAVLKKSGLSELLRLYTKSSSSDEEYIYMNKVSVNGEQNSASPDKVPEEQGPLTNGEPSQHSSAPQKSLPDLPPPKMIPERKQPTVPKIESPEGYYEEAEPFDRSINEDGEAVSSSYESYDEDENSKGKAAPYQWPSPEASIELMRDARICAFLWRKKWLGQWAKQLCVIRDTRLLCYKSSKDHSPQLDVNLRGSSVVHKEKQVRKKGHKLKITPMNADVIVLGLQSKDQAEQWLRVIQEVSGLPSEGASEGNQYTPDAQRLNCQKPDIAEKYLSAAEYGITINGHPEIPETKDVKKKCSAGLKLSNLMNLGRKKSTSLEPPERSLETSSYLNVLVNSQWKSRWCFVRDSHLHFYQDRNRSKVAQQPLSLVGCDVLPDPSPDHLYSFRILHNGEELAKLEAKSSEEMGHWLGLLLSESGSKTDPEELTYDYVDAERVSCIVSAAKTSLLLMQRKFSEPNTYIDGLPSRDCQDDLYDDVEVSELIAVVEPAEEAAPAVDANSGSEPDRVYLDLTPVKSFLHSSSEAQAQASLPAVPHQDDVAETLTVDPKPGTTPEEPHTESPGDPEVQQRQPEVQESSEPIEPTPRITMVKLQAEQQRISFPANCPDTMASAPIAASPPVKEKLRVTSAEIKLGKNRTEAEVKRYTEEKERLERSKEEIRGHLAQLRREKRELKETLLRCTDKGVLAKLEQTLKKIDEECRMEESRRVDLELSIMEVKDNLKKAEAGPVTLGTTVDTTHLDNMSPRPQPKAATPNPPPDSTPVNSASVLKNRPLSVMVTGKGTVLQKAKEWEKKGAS

[4] = molecular target: T4, FLAG-tagged PI3KAP/XB130 deletion mutant, amino acid residues 654-843 (mouse) (UniProt Q5DTU0)
T4 sequence: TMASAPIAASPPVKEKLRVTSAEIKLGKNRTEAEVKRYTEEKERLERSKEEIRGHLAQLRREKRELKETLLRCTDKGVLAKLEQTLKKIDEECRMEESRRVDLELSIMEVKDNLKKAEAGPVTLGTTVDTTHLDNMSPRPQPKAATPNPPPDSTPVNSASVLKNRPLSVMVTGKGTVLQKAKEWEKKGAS

B1: GFP-fused PI3KAP/XB130 (protein, UniProt Q5DTU0-2 1-843)
chain: MERYKAQGCCCLVVQRRILQVSASLEQLLTELDDFLKVLDQENLSSAAVLKKSGLSELLRLYTKSSSSDEEYIYMNKVSVNGEQNSASPDKVPEEQGPLTNGEPSQHSSAPQKSLPDLPPPKMIPERKQPTVPKIESPEGYYEEAEPFDRSINEDGEAVSSSYESYDEDENSKGKAAPYQWPSPEASIELMRDARICAFLWRKKWLGQWAKQLCVIRDTRLLCYKSSKDHSPQLDVNLRGSSVVHKEKQVRKKGHKLKITPMNADVIVLGLQSKDQAEQWLRVIQEVSGLPSEGASEGNQYTPDAQRLNCQKPDIAEKYLSAAEYGITINGHPEIPETKDVKKKCSAGLKLSNLMNLGRKKSTSLEPPERSLETSSYLNVLVNSQWKSRWCFVRDSHLHFYQDRNRSKVAQQPLSLVGCDVLPDPSPDHLYSFRILHNGEELAKLEAKSSEEMGHWLGLLLSESGSKTDPEELTYDYVDAERVSCIVSAAKTSLLLMQRKFSEPNTYIDGLPSRDCQDDLYDDVEVSELIAVVEPAEEAAPAVDANSGSEPDRVYLDLTPVKSFLHSSSEAQAQASLPAVPHQDDVAETLTVDPKPGTTPEEPHTESPGDPEVQQRQPEVQESSEPIEPTPRITMVKLQAEQQRISFPANCPDTMASAPIAASPPVKEKLRVTSAEIKLGKNRTEAEVKRYTEEKERLERSKEEIRGHLAQLRREKRELKETLLRCTDKGVLAKLEQTLKKIDEECRMEESRRVDLELSIMEVKDNLKKAEAGPVTLGTTVDTTHLDNMSPRPQPKAATPNPPPDSTPVNSASVLKNRPLSVMVTGKGTVLQKAKEWEKKGAS
In the case of B1, the binding [1] is reported as “binds”, the binding [2] is reported as “no binding” and the binding [3] is reported as “no binding”. The binding [4] was “no binding”.
